# Assay results from the supplement of paper PMC12217912.
# The list shows a part of the results. The full chains were built here from the parent and the listed change. Values near 0.05 are background.
# B1: TEV protease; numbered along this chain (parent)
# chain: MGESLFKGPRDYNPISSSICHLTNESDGHTTSLYGIGFGPFIITNKHLFRRNNGTLVVQSLHGVFKVKDTTTLQQHLVDGRDMIIIRMPKDFPPFPQKLKFREPQREERICLVTTNFQTKSMSSMVSDTSCTFPSGDGIFWKHWIQTKDGQCGSPLVSTRDGFIVGIHSASNFTNTNNYFTSVPKNFMELLTNQEAQQWVSGWRLNADSVLWGGHKVFMVKPEEPFQPVKEATQL
# Variants of: B1
# Test: raw area under fraction-flipped curve 0-4 h after induction (AUC4h, not background-subtracted), DNA-recorder readout of cleavage of the substrate (dimensionless); higher = more cleavage of the substrate by the protease variant
# Conditions: temperature: 34 °C; time window: 0-4 h after rhamnose induction
# 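Further: Bxb1 expression induced with 0.2% (w/v) L-rhamnose at OD600 near 0.5, cultures sampled hourly, flipped fraction per protease–substrate barcode pair counted by paired-end Illumina sequencing.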
Variant,area with substrate ENLDFQS,area with substrate ENLFFQS,area with substrate ENLHFQS,area with substrate ENLKFQS,area with substrate ENLMFQS,area with substrate ENLNFQS,area with substrate ENLPFQS,area with substrate ENLQFQS,area with substrate ENLVFQS,area with substrate ENLEFQS,area with substrate ENLGFQS,area with substrate ENLIFQS,area with substrate ENLLFQS,area with substrate ENLRFQS,area with substrate ENLSFQS,area with substrate ENLWFQS,area with substrate ENLTFQS
L156S,0.0583,0.0682,0.0738,0.0665,0.0465,0.0457,0.058,0.0548,0.0679,,,,,,,,
K148W,0.0653,0.0812,0.0752,0.085,,0.071,0.0667,0.0786,0.0797,0.0609,0.0707,0.0713,0.0623,0.0559,0.0724,0.0474,
Q198D,0.0695,0.0795,0.0676,0.0653,,0.0699,,0.068,0.059,0.0654,0.0602,0.0824,0.0774,0.0725,0.0606,0.0638,
Q198E,0.0636,0.0879,0.0673,0.0807,,0.073,0.065,0.0638,0.0988,,,0.0903,0.0702,0.0731,0.0612,0.0716,0.0327
G213L,0.0599,0.0538,0.0614,,0.0643,0.0638,0.0587,,,,0.0716,,,,0.0503,0.0524,
N193G,0.0764,0.0602,0.0466,,,,,0.0789,,,,,0.0605,,,,
H168C,,0.043,0.059,0.0536,0.0649,,,0.0576,,,0.0575,,0.0581,,0.0628,0.0521,
V183L,0.0704,0.0723,0.0634,0.0615,,0.0248,,0.0495,,,0.108,0.0907,,0.0488,0.0472,,
V183N,0.064,0.0887,,,,0.0506,,0.0817,0.108,,0.0669,,,0.0613,0.0554,0.0773,
E189A,,,,,,0.0649,,,,0.0611,,,,,,0.0544,
W141C,0.0718,0.0646,0.0565,0.0653,,0.0702,0.0607,0.0687,,0.0577,0.0414,0.0615,0.0714,,0.0737,0.036,
G166L,,,,0.0415,,0.0456,,,,,,0.0513,0.0572,0.06,0.042,0.0464,
G138N,,,0.0557,0.0558,0.0695,0.0632,0.0588,,,,,,0.107,,,,
L211P,0.0727,0.0608,0.0522,,,0.041,0.0574,,,,,,0.0671,,0.0676,0.064,
D82R,,,,0.0637,,0.0567,,,,,0.0452,0.0549,,,,,
P155V,0.0712,0.0925,,0.0621,,0.0329,0.0345,,0.0814,0.0647,,0.0863,0.0842,0.0615,0.0637,,
L190R,0.0635,0.0812,0.0641,0.0812,0.0681,0.0643,,0.0617,0.0758,,0.0417,0.0752,0.0836,,0.0813,0.0462,
